{"source": "PubChem BioAssay AID588855", "about": "(National Center for Advancing Translational Sciences (NCATS), 2011)", "note": "The whole screen tested about 410,000 compounds, of which about 5,000 (1.2%) were called active. This list was built around the results that the source calls inconclusive (neither active nor inactive); the mix of calls is not that of the screen. Calls follow the shape of the dose curve; as a rule, active = well fitted inhibition curve with a large enough effect; inconclusive = small, poorly fitted or top-dose-only effect; inactive = no such curve, though single readings can be large or run the other way. Potencies of inconclusive entries are doubtful fits and often do not repeat. Potency is read from the fitted curve at half-maximal effect; tags tell the direction and shape of the fitted curve.", "data": [{"test": "qHTS for Inhibitors of TGF-b; also: nearly all actives have a fitted effect of over 65% in size", "settings": "HepG2 CAGA-GFP TGF-b/SMAD3 reporter, GFP fluorescence, 18 h, TGF-beta stimulated, 500 pg/mL final; series mostly up to 46.1 µM", "how_it_was_run": "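Smad-responsive CAGA-GFP expression was quantified in HEPG2 cells exposed to compounds and 500 pg/mL final TGF-beta for 18 h at 37 degrees C; unstimulated wells defined full inhibition.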", "values": [{"smiles": "C=CC(=O)N1C/C(=C/c2ccc(F)cc2)C(=O)/C(=C\\c2ccc(F)cc2)C1", "Potency": "inconclusive: 1.78 µM [inhibitor, full curve, poor fit]"}, {"smiles": "CCOc1cc2[nH]c(=O)n(Cc3ccccc3)c(=O)c2cc1OCC", "Potency": "inconclusive: 3.55 µM [inhibitor, partial curve, poor fit]"}, {"smiles": "O=C(NC1CCCCC1)C1CC(=O)N(CCc2ccccc2)C1", "note": "(configuration not stated)", "Potency": "inconclusive: 2.82 µM [inhibitor, partial curve]"}, {"smiles": "CC(C)[C@H](NC(=O)N1CCn2c1nc1ccccc12)C(=O)NCc1ccc(F)cc1", "Potency": "inconclusive: 35.5 µM [inhibitor, single point]"}, {"smiles": "CCCn1c(N)c(N(CCOC)C(=O)c2ccc(Cl)c([N+](=O)[O-])c2)c(=O)[nH]c1=O", "Potency": "inactive"}, {"smiles": "O=c1[nH]c2ccccc2c(=O)n1CCCO", "Potency": "inactive"}, {"smiles": "CC(C)(CNC(=O)c1ccc([N+](=O)[O-])c(Cl)c1)CNC(=O)c1ccc([N+](=O)[O-])c(Cl)c1", "Potency": "inconclusive: 35.5 µM [inhibitor, single point]"}, {"smiles": "COc1ccc(C2Nc3ccccc3C(=O)N2Cc2ccccc2)cc1Cn1nnc2ccccc21", "note": "(configuration not stated)", "Potency": "inconclusive: 4.47 µM [inhibitor, full curve, poor fit]"}, {"smiles": "CCCCn1nnnc1C(CCSC)N1CCN(C/C=C/c2ccccc2)CC1", "note": "(configuration not stated)", "Potency": "inconclusive: 15.8 µM [inhibitor, partial curve]"}, {"smiles": "CC(C)n1c(=S)[nH]c2cc(Cl)ccc21", "Potency": "inconclusive: 35.5 µM [inhibitor, single point]"}, {"smiles": "O=C(CC(c1cccs1)N1Cc2ccccc2C1=O)Nc1ccc(F)c(F)c1", "note": "(configuration not stated)", "Potency": "inactive"}, {"smiles": "CCCCOc1ccc(C(=O)N/C(=C\\c2cccc([N+](=O)[O-])c2)C(=O)OC(C)C)cc1", "Potency": "inconclusive: 22.4 µM [inhibitor, partial curve, poor fit]"}, {"smiles": "CCOC(=O)c1ccc(-n2c(CCC(=O)O)ccc2-c2ccc(Br)cc2)cc1", "Potency": "inconclusive: 12.6 µM [inhibitor, partial curve, poor fit]"}, {"smiles": "O=C(Nc1nnc([C@@H]2C[C@H](O)[C@@H](CO)O2)s1)Nc1ccc(F)cc1F", "Potency": "inactive"}, {"smiles": "CCN(CC)Cc1c(C(=O)N2CCc3ccccc3C2)nc2ccc(Cl)cn12", "Potency": "inactive"}, {"smiles": "CSc1ccccc1NC(=O)c1noc(C)c1[N+](=O)[O-]", "Potency": "inconclusive: 35.5 µM [inhibitor, single point]"}, {"smiles": "COc1cccc(CNCCSc2nnnn2C)c1OCc1ccccc1Cl", "Potency": "inconclusive: 10 µM [inhibitor, partial curve]"}, {"smiles": "O=C(Nc1ccc(Cl)c(Cl)c1)C1CC(=O)N(c2ccc(Br)cc2)C1", "note": "(configuration not stated)", "Potency": "inconclusive: 22.4 µM [inhibitor, single point]"}, {"smiles": "Cc1nn2c(=O)cc(COC(=O)c3ccco3)nc2s1", "Potency": "inconclusive: 0.316 µM [inhibitor, full curve, poor fit]"}, {"smiles": "CC(C)(CNC(=O)c1cc2c(s1)CCCC2)N1CCOCC1", "Potency": "inactive"}, {"smiles": "COc1cc(C(=O)N/N=C/c2ccc(OC)c(CN3CCN(c4ccc(F)cc4)CC3)c2)ccc1O", "Potency": "inconclusive: 17.8 µM [inhibitor, single point]"}, {"smiles": "CC1(C)CC(NC(=O)c2cc([N+](=O)[O-])cc([N+](=O)[O-])c2)CC(C)(C)N1", "Potency": "inconclusive: 35.5 µM [inhibitor, single point]"}, {"smiles": "COc1cccc(-c2nc(CS(=O)(=O)CC(=O)N3CCc4ccccc4C3)c(C)o2)c1", "Potency": "inconclusive: 11.2 µM [inhibitor, single point]"}, {"smiles": "Cc1cc(NC(=O)c2cc(-c3ccc(C)c(C)c3)nc3ccccc23)no1", "Potency": "inactive"}, {"smiles": "O=C(NCc1cccc(Cl)c1)c1ccc(CS(=O)Cc2ccc(Cl)cc2)o1", "note": "(configuration not stated)", "Potency": "inconclusive: 20 µM [inhibitor, single point]"}, {"smiles": "Cc1nn(-c2ccccc2)c2c1N(CCCC(=O)NCc1ccc(N(C)C)cc1)C(=O)CS2", "Potency": "inconclusive: 20 µM [inhibitor, partial curve, poor fit]"}, {"smiles": "COc1cc(-c2noc(C)c2C(=O)NCCO)cc(OC)c1OC", "Potency": "inactive"}, {"smiles": "Nc1ncnc2c1ncn2[C@@H]1O[C@H](CNS(=O)(=O)CCCCl)[C@@H](O)[C@H]1O", "Potency": "inactive"}, {"smiles": "C/C=C/C(=O)[C@@H](C)[C@@H](/C=C/C[Si](C)(C)C)c1ccccc1", "Potency": "inactive"}, {"smiles": "CCOc1cc(CN2CCC(CO)(Cc3cccc(C(F)(F)F)c3)CC2)ccc1OC", "Potency": "inconclusive: 35.5 µM [inhibitor, single point]"}, {"smiles": "COc1cccc(C(NC(C)=O)c2nc(-c3ccccc3)cs2)c1", "note": "(configuration not stated)", "Potency": "inactive"}, {"smiles": "C/C(=N\\NC(=O)c1c(Cl)c(C)nn1C)c1ccc(NC(=O)C2CCC2)cc1", "Potency": "inactive"}, {"smiles": "O=C(CS(=O)(=O)c1ccccc1)c1cc2cc(F)ccc2oc1=O", "Potency": "inconclusive: 35.5 µM [inhibitor, single point]"}, {"smiles": "COc1ccc(CC(=O)Nc2sc3c(c2C(=O)Nc2cccc(Cl)c2)CCCCC3)cc1", "Potency": "inconclusive: 22.4 µM [inhibitor, single point]"}, {"smiles": "O=C(O)CCCCCNc1ccc2nsnc2c1[N+](=O)[O-]", "Potency": "inactive"}, {"smiles": "CCC(=O)N1CCc2cc(S(=O)(=O)CCC(=O)Nc3ccc(OC(F)(F)F)cc3)ccc21", "Potency": "active: 11.2 µM"}, {"smiles": "O=C(Nc1c2c(nc3ccccc13)CCCC2)c1ccccc1F", "Potency": "inconclusive: 35.5 µM [inhibitor, single point]"}, {"smiles": "CC1CCCN(C(=O)C2CCN(c3nc(-c4ccccc4)nc4c3CCC4)CC2)C1", "note": "(configuration not stated)", "Potency": "inactive"}, {"smiles": "CC(Sc1n[nH]c(=O)n1Cc1ccccc1)C(=O)NC1CCCCC1C", "note": "(configuration not stated)", "Potency": "inconclusive: 2.82 µM [inhibitor, full curve, poor fit]"}, {"smiles": "OCCC1CN(Cc2cnc(-c3ccccc3)s2)CCN1CCc1ccccc1", "note": "(configuration not stated)", "Potency": "inconclusive: 4.47 µM [inhibitor, partial curve, poor fit]"}, {"smiles": "CCN(CC)C(=O)[C@H]1C[C@H](CC(=O)NCCCN(C)C)C(=O)N2CCc3c([nH]c4ccc(Cl)cc34)[C@]12C", "Potency": "inconclusive: 12.6 µM [inhibitor, single point]"}, {"smiles": "C[C@H](CO)N1C[C@H](C)[C@@H](CN(C)Cc2ccc(C(=O)O)cc2)Oc2ccc(NS(C)(=O)=O)cc2C1=O", "Potency": "inactive"}, {"smiles": "CC1CCN(S(=O)(=O)c2cn(CC(=O)Nc3ccc(OC(F)(F)F)cc3)cn2)CC1", "Potency": "inactive"}, {"smiles": "O=C(C1CC12CCCC2)N1CCC(CO)(Cc2ccccc2Cl)CC1", "note": "(configuration not stated)", "Potency": "inconclusive: 22.4 µM [inhibitor, single point]"}, {"smiles": "CCOC(=O)c1c(S(=O)(=O)NCC(=O)N2CCN(c3cc(C)ccc3C)CC2)c(C)n(C)c1C", "Potency": "inconclusive: 12.6 µM [inhibitor, partial curve, poor fit]"}, {"smiles": "O=C(Nc1ccc(Cl)c(Cl)c1)OCCNC(=O)c1cccc(Cl)c1", "Potency": "inconclusive: 35.5 µM [inhibitor, single point]"}, {"smiles": "COC(=O)c1ccccc1NC(=O)Cn1c(=O)n(CCC(=O)NCc2ccccc2OC)c(=O)c2ccccc21", "Potency": "inconclusive: 4.47 µM [inhibitor, partial curve, poor fit]"}, {"smiles": "COc1ccc(-c2csc(Nc3ccc(S(=O)(=O)Nc4cc(OC)nc(OC)n4)cc3)n2)cc1", "Potency": "inconclusive: 7.08 µM [inhibitor, partial curve, poor fit]"}, {"smiles": "COc1ccc(NC2=CC(=O)CC(c3ccccc3)C2)c(OC)c1", "note": "(configuration not stated)", "Potency": "inconclusive: 6.31 µM [inhibitor, partial curve]"}, {"smiles": "O=C(c1cccc(C(F)(F)F)c1)C1CCCN(Cc2ccc(OCCO)cc2)C1", "note": "(configuration not stated)", "Potency": "inconclusive: 35.5 µM [inhibitor, partial curve, poor fit]"}, {"smiles": "CC(=O)N1N=C(c2ccco2)CC1c1ccc(C)cc1", "note": "(configuration not stated)", "Potency": "inactive"}, {"smiles": "COc1ccc(-c2cn3nc(N4CCCC(C(=O)Nc5ccccc5OC)C4)sc3n2)cc1", "note": "(configuration not stated)", "Potency": "inconclusive: 2.24 µM [inhibitor, partial curve, poor fit]"}, {"smiles": "O=C(c1ccc2c(c1)OCO2)N(Cc1ccco1)C1(C(=O)NC2CCCCC2)CCCCC1", "Potency": "inactive"}, {"smiles": "COc1ccc(C2NC(=S)NC3=C2CCc2ccccc23)cc1OC", "note": "(configuration not stated)", "Potency": "inconclusive: 2.51 µM [inhibitor, full curve, poor fit]"}, {"smiles": "Cc1ccccc1C(=O)NNC(=O)/C=C\\C(=O)O", "Potency": "inactive"}, {"smiles": "CCn1cc2nc(SCC(=O)Nc3ccccc3F)n(Cc3ccccc3)c(=O)c2n1", "Potency": "inactive"}, {"smiles": "CCC(=O)c1ccc(OCc2ccc(C(=O)c3ccccc3)cc2)cc1", "Potency": "inactive"}, {"smiles": "C[C@]12c3[nH]c4ccc(Cl)cc4c3CCN1C(=O)[C@@H](CC(=O)NCc1cccc(C(F)(F)F)c1)C[C@@H]2C(=O)N1CCCCC1", "Potency": "inconclusive: 11.2 µM [inhibitor, partial curve, poor fit]"}, {"smiles": "CCn1c2ccccc2nc2cc3c(cc21)c(Cl)c(=O)c1ccccc13", "Potency": "active: 17.8 µM"}, {"smiles": "COCCCNC(=O)c1ccc2c(=O)n(Cc3ccc(Cl)cc3)c(=S)[nH]c2c1", "Potency": "inactive"}, {"smiles": "O=C(Nc1ccc2c(c1)OCO2)c1cc(-c2ccncc2)nc2ccccc12", "Potency": "inconclusive: 35.5 µM [inhibitor, single point]"}, {"smiles": "S=C1NCN(Cc2ccco2)CN1c1ccccc1", "Potency": "inactive"}, {"smiles": "CCOC(=O)c1cc(OC(C)=O)c2ccc(OC)c(OC)c2c1", "Potency": "inactive"}, {"smiles": "CCOCCn1c(CN2CCN(c3ccccc3)CC2)nc2c1c(=O)n(C)c(=O)n2C", "Potency": "inconclusive: 0.794 µM [inhibitor, full curve, poor fit]"}, {"smiles": "O=c1cc(C(F)(F)F)nc(SC/C=C/c2ccccc2)[nH]1", "Potency": "active: 14.1 µM"}, {"smiles": "CN1CCN(C(=S)c2ccc(OCC(=O)Nc3cccc(C(F)(F)F)c3)cc2)CC1", "Potency": "inactive"}, {"smiles": "COc1ccc(Cl)cc1C(=O)NNC(=S)NC1CCCCC1", "Potency": "inconclusive: 4.47 µM [inhibitor, single point]"}]}]}
